# From the supplement of paper PMC10037445
# Over roughly 2,900 compounds, “NF-kB SEAP reporter activity, fold change vs agonist alone” has its median near 0.99; the highest 2% begin near 2.6. The list shows a part of the results.
# How the values were obtained:
# RAW-Dual [1] = experiment: NF-kB SEAP reporter activity, fold change vs agonist alone; higher = enhanced NF-kB activity; conditions: cytotoxicity flag (confluency mask): not cytotoxic
# Summary of the method: (§1)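 Reporter activity is given as fold change relative to agonist-alone wells. To measure it, 50 nL of library stock was pin-tooled onto RAW-Dual macrophages (50,000 cells/well, DMEM, 384-well plates), a PRR agonist followed 1 h later, and cells stayed at 37 °C, 5% CO2. Twenty hours on, supernatant was assayed for IRF (QuantiLuc luminescence) and NF-κB (QuantiBlue, 620 nm absorbance), and wells under 70% of agonist-control IncuCyte confluency in both mask sets were marked cytotoxic.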
# RAW-Dual [2] = experiment: NF-kB SEAP reporter activity, fold change vs agonist alone; cytotoxicity flag (confluency mask): not cytotoxic; higher = enhanced NF-kB activity
# Summary of the method: as §1
# [3] = library stock concentration (final ~1000-fold dilution): 10 mM, agonist: MPLA (TLR4) […]
# [4] = library stock concentration (final ~1000-fold dilution): 10 mM, agonist: Imiquimod (TLR7) […]
# [5] = agonist: ODN 1826 (TLR9) 0.5 ug/mL
# [6] = agonist: Pam2CSK4 (TLR2/6) 0.1 ug/mL
# [7] = agonist: Pam3CSK4 (TLR2/1) 0.1 ug/mL
# [8] = library stock concentration (final ~1000-fold dilution): 2 mM, agonist: Imiquimod (TLR7) […]
# [9] = library stock concentration (final ~1000-fold dilution): 2 mM, agonist: MPLA (TLR4) […]
smiles,measurement,setting,value
O=C1C(CCS(=O)c2ccccc2)C(=O)N(c2ccccc2)N1c1ccccc1 (stereo not given),NF-kB SEAP reporter activity,RAW-Dual [1]; [3],0.927
Cc1cc(N=Nc2ccc(S(=O)(=O)Nc3ccccn3)cc2)c(N)cc1O (library stock concentration (final ~1000-fold dilution): 10 mM),NF-kB SEAP reporter activity,RAW-Dual [2]; agonist: LPS (TLR4) 0.1 ug/mL,3.77
CC1(C)CC1C(=O)N/C(=C\CCCCSCC(N)C(=O)O)C(=O)O (stereo not given),NF-kB SEAP reporter activity,RAW-Dual [1]; [4],0.969
same,NF-kB SEAP reporter activity,RAW-Dual [1]; [3],1
CC1(C)CC1C(=O)N/C(=C\CCCCSCC(N)C(=O)O)C(=O)O (stereo not given) (library stock concentration (final ~1000-fold dilution): 10 mM),NF-kB SEAP reporter activity,RAW-Dual [2]; agonist: LPS (TLR4) 0.1 ug/mL,0.995
same,NF-kB SEAP reporter activity,RAW-Dual [2]; [5],0.976
same,NF-kB SEAP reporter activity,RAW-Dual [2]; [6],1.06
same,NF-kB SEAP reporter activity,RAW-Dual [2]; [7],1.1
CCOC(=O)C(CCc1ccccc1)NC(C)C(=O)N1Cc2ccccc2CC1C(=O)O.Cl (stereo not given) (library stock concentration (final ~1000-fold dilution): 10 mM),NF-kB SEAP reporter activity,RAW-Dual [2]; agonist: LPS (TLR4) 0.1 ug/mL,0.94
same,NF-kB SEAP reporter activity,RAW-Dual [2]; [5],1.07
same,NF-kB SEAP reporter activity,RAW-Dual [2]; [6],1.26
same,NF-kB SEAP reporter activity,RAW-Dual [2]; [7],1.05
CCOC(=O)C(CCc1ccccc1)NC(C)C(=O)N1Cc2ccccc2CC1C(=O)O.Cl (stereo not given),NF-kB SEAP reporter activity,RAW-Dual [1]; [4],1.02
same,NF-kB SEAP reporter activity,RAW-Dual [1]; [3],1.03
Cl.NC12CC3CC(CC(C3)C1)C2 (library stock concentration (final ~1000-fold dilution): 10 mM),NF-kB SEAP reporter activity,RAW-Dual [2]; agonist: LPS (TLR4) 0.1 ug/mL,1.03
same,NF-kB SEAP reporter activity,RAW-Dual [2]; [5],0.798
same,NF-kB SEAP reporter activity,RAW-Dual [2]; [6],0.873
same,NF-kB SEAP reporter activity,RAW-Dual [2]; [7],1.02
Cl.NC12CC3CC(CC(C3)C1)C2,NF-kB SEAP reporter activity,RAW-Dual [1]; [4],0.884
same,NF-kB SEAP reporter activity,RAW-Dual [1]; [3],1.08
Cc1cnc(Nc2ccc(F)cc2Cl)nc1-c1c[nH]c(C(=O)NC(CO)c2cccc(Cl)c2)c1 (stereo not given) (library stock concentration (final ~1000-fold dilution): 10 mM),NF-kB SEAP reporter activity,RAW-Dual [2]; agonist: LPS (TLR4) 0.1 ug/mL,0.359
same,NF-kB SEAP reporter activity,RAW-Dual [2]; [5],0.482
same,NF-kB SEAP reporter activity,RAW-Dual [2]; [6],0.0809
same,NF-kB SEAP reporter activity,RAW-Dual [2]; [7],0.13
Cc1cnc(Nc2ccc(F)cc2Cl)nc1-c1c[nH]c(C(=O)NC(CO)c2cccc(Cl)c2)c1 (stereo not given),NF-kB SEAP reporter activity,RAW-Dual [1]; [4],0.304
same,NF-kB SEAP reporter activity,RAW-Dual [1]; [3],0.428
CC(C)(C)c1ccc(C(=O)CCCN2CCC(OC(c3ccccc3)c3ccccc3)CC2)cc1 (library stock concentration (final ~1000-fold dilution): 2 mM),NF-kB SEAP reporter activity,RAW-Dual [2]; agonist: LPS (TLR4) 0.1 ug/mL,1.36
same,NF-kB SEAP reporter activity,RAW-Dual [2]; [5],1.32
same,NF-kB SEAP reporter activity,RAW-Dual [2]; [6],1.02
same,NF-kB SEAP reporter activity,RAW-Dual [2]; [7],1.13
CC(C)(C)c1ccc(C(=O)CCCN2CCC(OC(c3ccccc3)c3ccccc3)CC2)cc1,NF-kB SEAP reporter activity,RAW-Dual [1]; [8],1.14
same,NF-kB SEAP reporter activity,RAW-Dual [1]; [9],1.17
CCOC(=O)C1=CC2(CC)CCCN3CCc4c(n1c1ccccc41)C32 (stereo not given) (library stock concentration (final ~1000-fold dilution): 2 mM),NF-kB SEAP reporter activity,RAW-Dual [2]; agonist: LPS (TLR4) 0.1 ug/mL,1.38
same,NF-kB SEAP reporter activity,RAW-Dual [2]; [5],0.889
same,NF-kB SEAP reporter activity,RAW-Dual [2]; [6],1.09
same,NF-kB SEAP reporter activity,RAW-Dual [2]; [7],1.15
CCOC(=O)C1=CC2(CC)CCCN3CCc4c(n1c1ccccc41)C32 (stereo not given),NF-kB SEAP reporter activity,RAW-Dual [1]; [8],0.798
same,NF-kB SEAP reporter activity,RAW-Dual [1]; [9],1.1
NC(Cc1ccccc1)C(=O)O (stereo not given) (library stock concentration (final ~1000-fold dilution): 2 mM water),NF-kB SEAP reporter activity,RAW-Dual [2]; agonist: LPS (TLR4) 0.1 ug/mL,1.49
same,NF-kB SEAP reporter activity,RAW-Dual [2]; [5],1.09
same,NF-kB SEAP reporter activity,RAW-Dual [2]; [6],1.16
same,NF-kB SEAP reporter activity,RAW-Dual [2]; [7],1.04
NC(Cc1ccccc1)C(=O)O (stereo not given),NF-kB SEAP reporter activity,"RAW-Dual [1]; library stock concentration (final ~1000-fold dilution): 2 mM water, agonist: Imiquimod (TLR7) […]",0.909
same,NF-kB SEAP reporter activity,"RAW-Dual [1]; library stock concentration (final ~1000-fold dilution): 2 mM water, agonist: MPLA (TLR4) […]",1.03
Cc1noc(C)c1-c1cnc2c(-c3ccc(C(=O)O)cc3)cn(C(C)c3ccccn3)c2c1 (stereo not given),NF-kB SEAP reporter activity,RAW-Dual [1]; [4],1.59
same,NF-kB SEAP reporter activity,RAW-Dual [1]; [3],2.29
Cc1noc(C)c1-c1cnc2c(-c3ccc(C(=O)O)cc3)cn(C(C)c3ccccn3)c2c1 (stereo not given) (library stock concentration (final ~1000-fold dilution): 10 mM),NF-kB SEAP reporter activity,RAW-Dual [2]; agonist: LPS (TLR4) 0.1 ug/mL,2.32
same,NF-kB SEAP reporter activity,RAW-Dual [2]; [5],1.73
same,NF-kB SEAP reporter activity,RAW-Dual [2]; [6],0.767
same,NF-kB SEAP reporter activity,RAW-Dual [2]; [7],2.09
